# Laboratory results reported in the RNAGym collection of RNA variant scans (doi:10.1093/nar/gkz1192).
# Read counts are not given, so values of variants with three or more changes are uncertain.
# B1: CPEB3 Ribozyme (parent)
# chain: UAACAGGGGGCCACAGCAGAAGCGUUCACGUCGCAGCCCCUGUCAGAUUCUGGUGAAUCUGCGAAUUCUGCUGUAUAUCUC
# Variants of: B1
# Assay: self-cleavage, relative activity (ratio to wild type); higher = more cleavage; in vitro, sequencing
# Summary of the method: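 CPEB3 self-cleaving ribozyme mutant libraries were made by rounds of error-prone PCR, barcoded, and transcribed in vitro with T7 RNA polymerase for 5 hours at 37°C. Cleavage occurred during transcription and a 15 min DNase I step before EDTA stop. RNAs were reverse transcribed with template switching and Illumina-sequenced, with DNA sequencing mapping barcodes to variants. Relative activity is the variant's cleaved/total read fraction divided by wild type's (minimum 5 reads), averaged across three batches.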
row,Variant,self-cleavage
1,G8U U41A U49A,0.16
2,G9A A20U U31C G53A U60A G63U A75G,0.1
3,G9A A35G U69G,0.49
4,G9A A13G A28U U51C C59A,0.22
5,G9A A20U U49C,0.17
6,G9A G19U A21G U41A U54A,0.08
7,G9A A20U G30A A35U A57G U69A,0.04
8,G9A A18U A21G U49C,0.07
9,G9A C11A A18U C32U U58C U76C,0.05
10,G9A U26C A47U A56G,0.11
11,G9A U26C A28U C34U A47G,0.04
12,G9A A13U U72A,0.13
13,G9A A20U G24A A35G U41C U43C G70A,0.05
14,G9A A28U G70C,0.15
15,G9A C29U U51C,0.13
16,G9A A21G A64U,0.08
17,G9A C11G U60C U66C,0.06
18,G9A C29G U54C A56C U72A U78C,0.03
19,G9A U31C C40U U78C,0.06
20,G9A C17G U26G U41A U80C,0.06
21,G9A A13G A47U U67C,0.05
22,G9A A13G U26A U69C,0.06
23,G9A C17A U31C A35U A47U U66C U72A,0.03
24,G9A C40G U43C U54A U66C U69C U78C,0.05

row,Variant,self-cleavage
1,G9A G10A C11U U69A,0.19
2,G9A A13U A47C A64G,0.34
3,G9A U26C A47G,0.08
4,G9A A13G G33C G42A U51C U66A C71U,0.04
5,G9A A13U A35U U41C U43C,0.06
6,G9A A47G A57G,0.13
7,G8U U41C A65G C81A,0.16
8,G9A U26C A35G A45G,0.14
9,G9A C17U C29G U49C,0.25
10,G9A G10A G30C A65G U80A,0.21
11,G9A A18U A28U G30A U80C,0.06
12,G8U U49A C59U A64U U72C,0.04
13,G9A A18G C40U U41A,0.23
14,G9A G33A U43A A75G,0.06
15,G9A G30U A45G U60A,0.12
16,G9A C14A U49G U78C,0.25
17,G8U U41C A77G U80A,0.08
18,G9A A35G U43C A45G A57G U67C U80G,0.06
19,G8U U49C U76C U78C,0.12
20,G8U U41A U66C U67C U72A,0.11
21,G9A A18G U31C U49C G55U U76A,0.05
22,G9A A15U U26C A35U A45G U72C,0.13
23,G9A C11U U26C A56G,0.11
24,G9A G30A A35C U49A G53C A57G,0.06

row,Variant,self-cleavage
1,G9A G55U U72C U74A,0.52
2,G9A C17G A20G U43C A56G,0.08
3,G9A C23U U48C,0.29
4,G9A A18U U25C U60C A64G U74A,0.06
5,G9A G16A U31C C40A U80C,0.35
6,G9A A15G A56C A65U U78A,0.06
7,G9A A35C U43A G52A,0.19
8,G9A A18U C81U,0.25
9,G8U U31C U78C,0.06
10,G9A U25A U72C U78C,0.05
11,G9A U25A A56G A57G,0.32
12,G9A C11G G19C U31A A65G,0.21
13,G9A G16U U41C G42A U43C U66C U78C,0.04
14,G9A A15G A64U U72A,0.11
15,G9A C11U A64U,0.05
16,G9A A35G U67C U72C A77U,0.1
17,G9A G42A U54C A65U,0.21
18,G9A A56U U69C C71A,0.07
19,G9A A15G U43A A45G U49C A65G,0.05
20,G9A G10A A15G A47G,0.33
21,G9A C27A A57G A77G,0.16
22,G9A A21G U41C U49A U54G A57G U67C,0.03
23,G9A C34U C40G A45U U49A A65U,0.04
24,G9A G10A A28G C39U G55C,0.05

row,Variant,self-cleavage
1,G9A G24A A45G,0.17
2,G9A A28G C32U G36C A56G A64G U74C,0.03
3,G9A G24A C32G C40U U41A U54A,0.03
4,G9A C12U A13U G63U C81U,0.33
5,G9A U25A U69A G70C,0.11
6,G9A A18G A35G C39U,0.11
7,G9A U26C A35G G36A U69A,0.04
8,G9A C29U A64G,0.08
9,G9A G10A U58A A65G U67C U72C U78A,0.03
10,G9A A18G U41C U54G,0.04
11,G9A A15U A28C,0.48
12,G9A A45G A56G,0.37
13,G9A C39A U74C A75G,0.09
14,G9A A28G A77C,0.05
15,G9A G10C A20G U25C U51A,0.25
16,G9A A15U A20U C23G U25C A35G U41A,0.06
17,G8U U41A U60C,0.12
18,G9A A15U A21U A47U A56G A64U U74A,0.06
19,G9A C39U G52C U60C A65G U69G U80A,0.03
20,G9A A15U U25C C38A,0.15
21,G8U U41C U48C U60A,0.12
22,G9A A13U U54C A65G U76C,0.04
23,G8U U66C U69A,0.14
24,G9A G19C C40G A77G,0.14

row,Variant,self-cleavage
1,G8U U51C A57G U69G,0.3
2,G9A A18U A35G,0.3
3,G9A A13C C38A A57U,0.1
4,G9A U26C G53U C68A,0.14
5,G9A C27U U49C A75G,0.35
6,G9A C23U U31A A35U U43A U80C C81U,0.04
7,G9A A21U A28G U67A U72A A77G U80A,0
8,G9A U26G A65G C79U,0.02
9,G9A A15G C29U,0.16
10,G9A A18G C40U U41A U66C,0.13
11,G8U U31G U43C U74C,0.17
12,G9A A20G A28G U43C,0.04
13,G9A A13U A21G U31C U41C A57G U67C,0.08
14,G9A A20U U25A,0.12
15,G9A A20G U54C U67C,0.14
16,G9A U25C G33A A77G,0.05
17,G9A U26C U58A A65U U69C,0.21
18,G9A A15G A45G U58A U72C U80A,0.17
19,G9A C40A G63A A64C A77U,0.03
20,G9A G33A U69C U78G U80A,0.05
21,G8U U60C A75U,0.05
22,G9A G33C G42U,0.12
23,G9A A21G A35U U69C U80C,0.08
24,G9A A28U U72A,0.19

row,Variant,self-cleavage
1,G9A A15G A28G U41C,0.09
2,G9A C32U A64U,0.45
3,G9A C11U C34U C40G A45U U49A A57G,0.09
4,G9A C11G U69C U72A A77G,0.05
5,G9A A35U U41A A56G,0.05
6,G9A A28G A47U G52A A64G C68A U72A,0.02
7,G9A A15G A20G U54C,0.24
8,G9A C11U U26C A56G U80A,0.05
9,G9A C11U G33A G55U U80A,0.05
10,G9A A15G A21G U26C G55A,0.04
11,G9A A35C U67C U80C,0.13
12,G9A A28U U41G U49C U74G,0.22
13,G9A A15G A28G U41C A56U C62U,0.23
14,G9A A18U A21G U51A A56U,0.05
15,G9A C34G A35G U60C A65U,0.06
16,G9A A13G A21U U74C U80C,0.1
17,G9A A13G A20G U60C,0.14
18,G9A A20G G30U G42A U80C,0.08
19,G9A C29A G36U U48C U49C,0.06
20,G9A U31C A35U U66C U67C,0.05
21,G9A C40U A45G A64G,0.07
22,G9A C29U U41C U51A A77G,0.09
23,G9A C17U U78C,0.11
24,G8U U49C U51C U72C C81G,0.06

row,Variant,self-cleavage
1,G9A G22U U26C,0.11
2,G9A A13G C23U A45G U67C C81U,0.06
3,G9A G19C U80C,0.11
4,G9A A15G U41C U54C,0.19
5,G9A A21G U43C U60C C62U U78G,0.04
6,G9A U26C A35G U58C U74A,0.06
7,G9A A13U A28G A75G U78C,0.14
8,G9A A28U U41C U58C U69C,0.05
9,G9A U31C U54C U69A,0.04
10,G9A U31C G42A U43C,0.06
11,G9A A13G U54A,0.17
12,G9A A45G U67C,0.06
13,G9A A65G U66C U72C,0.04
14,G9A U25C A64G U78C U80C,0.17
15,G9A A45G U48C U51A U54A A57G U76C,0.08
16,G9A A13U A47C U49C,0.19
17,G9A A15G A45G U60A U72G,0.09
18,G9A C34A U66C U69A U72C U74C,0.1
19,G8U U43G A45G,0.16
20,G9A A18G G24A A57G,0.04
21,G9A G46A A47G U49A U58C G70A U78C,0.05
22,G9A A20U C29U A45G,0.06
23,G9A A15G C17U U31A U58C U78C,0.05
